Reference: PubChem BioAssay AID504332 (National Center for Advancing Translational Sciences (NCATS), 2011)
Several values for one entry are separate records, joined by “and”; a condition that tells them apart may be missing. Identical values can stand only once. About 31,000 (8.9%) of roughly 350,000 compounds were called active. The shares of active, inactive and inconclusive entries below differ from those in the screen. The call rests on the fitted dose curve; in most records, active means well fitted inhibition curve with a large enough effect; inconclusive means small, poorly fitted or top-dose-only effect; inactive means no such curve, though single readings can be large or run the other way. A potency beside an inconclusive call is a rough fit, not a confirmed value.

Biological target: Histone-lysine N-methyltransferase EHMT2 (Homo sapiens) (UniProt Q96KQ7)
Assay: qHTS Assay for Inhibitors of Histone Lysine Methyltransferase G9a; further: nearly all actives have a fitted effect of over 75% in size
Conditions: G9a H3K9 monomethylation, AlphaScreen, 2 h; activity, negative = inhibition: at 59 µM (top of the series) unless noted
In short: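 G9a (20 nM) preincubated 15 min RT with compounds, then 500 nM biotinylated H3K9 peptide and 20 uM SAM added; 2 h RT reaction. Monomethyl-H3K9 product detected by AlphaScreen with anti-H3K9me1 antibody, streptavidin donor and anti-rabbit IgG acceptor beads.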
On the % scale 0 is the no-effect control and ±100 the full control effect; potency means the concentration at half of the fitted maximal effect; tags describe the fitted curve by direction and shape.

Sequence of UniProt Q96KQ7 (Q96KQ7 whole entry, looked up): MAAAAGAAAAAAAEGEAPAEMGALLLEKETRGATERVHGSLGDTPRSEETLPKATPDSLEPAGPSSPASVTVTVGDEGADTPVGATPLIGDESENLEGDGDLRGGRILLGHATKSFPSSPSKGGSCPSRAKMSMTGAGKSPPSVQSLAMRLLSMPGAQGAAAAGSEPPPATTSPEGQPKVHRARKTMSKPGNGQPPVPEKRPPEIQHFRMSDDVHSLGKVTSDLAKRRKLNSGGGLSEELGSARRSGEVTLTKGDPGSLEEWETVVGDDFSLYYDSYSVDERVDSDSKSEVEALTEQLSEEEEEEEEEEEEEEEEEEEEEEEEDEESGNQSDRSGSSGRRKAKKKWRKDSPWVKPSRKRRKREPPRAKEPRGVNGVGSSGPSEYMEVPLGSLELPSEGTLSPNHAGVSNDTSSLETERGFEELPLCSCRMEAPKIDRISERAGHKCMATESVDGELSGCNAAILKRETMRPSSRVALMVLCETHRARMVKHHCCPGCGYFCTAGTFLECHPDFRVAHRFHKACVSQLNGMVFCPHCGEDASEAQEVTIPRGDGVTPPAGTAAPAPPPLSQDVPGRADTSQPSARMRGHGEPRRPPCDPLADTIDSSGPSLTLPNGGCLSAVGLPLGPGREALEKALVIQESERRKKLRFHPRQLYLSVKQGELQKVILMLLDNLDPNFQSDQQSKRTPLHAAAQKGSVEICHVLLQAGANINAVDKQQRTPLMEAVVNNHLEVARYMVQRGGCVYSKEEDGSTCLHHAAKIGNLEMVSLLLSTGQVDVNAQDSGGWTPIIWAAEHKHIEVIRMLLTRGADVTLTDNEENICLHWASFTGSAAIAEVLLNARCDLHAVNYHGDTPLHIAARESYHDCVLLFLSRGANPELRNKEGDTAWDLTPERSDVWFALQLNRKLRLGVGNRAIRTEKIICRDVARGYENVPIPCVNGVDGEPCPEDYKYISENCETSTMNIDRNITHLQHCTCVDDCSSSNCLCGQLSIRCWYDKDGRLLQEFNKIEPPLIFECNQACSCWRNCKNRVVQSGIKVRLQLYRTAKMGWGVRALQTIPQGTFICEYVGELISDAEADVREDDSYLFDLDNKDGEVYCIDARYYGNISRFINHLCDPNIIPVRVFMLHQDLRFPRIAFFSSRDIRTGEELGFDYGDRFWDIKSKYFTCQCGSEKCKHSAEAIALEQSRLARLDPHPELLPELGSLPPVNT

Question: Which Potency does the source give for COc1ccc(NC(=O)c2cn(-c3ccccc3)nc2-c2ccncc2)cc1 here?
Answer: The Potency was “inactive”.

Question: N=c1n(CCN2CCCC2)c2ccccc2n1CC(O)c1ccco1 (stereo not given) was tested. Which Potency did it give?
Answer: The Potency was inconclusive: 2 µM [inhibitor, partial curve, poor fit].

Question: With O=c1cc(-c2ccccc2)c2c([nH]1)CCCC2 as the compound, how does the Potency read?
Answer: Its Potency is inconclusive: 20 µM [inhibitor, single point].

Question: Which Potency does the source give for N#CC1=C(N)C(C#N)(C#N)C2(C(=O)Nc3ccccc32)C2CCCC=C12 (stereo not given) here?
Answer: The Potency was inconclusive: 56.2 µM [inhibitor, partial curve, poor fit].

Question: How did the Potency turn out when CCOC(=O)N1CCN(CCC(=O)c2ccc(Cl)cc2)CC1 was run?
Answer: Its Potency is inconclusive: 2.51 µM [inhibitor, partial curve, poor fit].

Question: For CCN(CC(=O)Nc1c(F)cccc1F)C(=O)COc1cccc2c1OC(C)(C)C2, which activity, negative = inhibition is on record?
Answer: The activity, negative = inhibition was inactive: 4.03% [at 0.501 µM].

Question: With Nc1c(C(=O)Nc2ccc(C(F)(F)F)cc2)sc2nc(-c3cccs3)ccc12 as the compound, how does the Potency read?
Answer: Its Potency is inconclusive: 5.01 µM [inhibitor, full curve].

Question: With CCC1=NN2C(=N)/C(=C\c3ccc(OCCOc4ccc(NC(C)=O)cc4)cc3)C(=O)N=C2S1 as the compound, how does the Potency read?
Answer: Its Potency is “inactive”.

Question: Which Potency does the source give for Cc1ccc(-n2c(-c3ccncc3)nnc2-c2ccco2)cc1 here?
Answer: The Potency was inconclusive: 89.1 µM [inhibitor, single point].

Question: CCOC(=O)c1cc(=O)n2[nH]c(-c3ccc(C)cc3)cc2n1 was tested. Which activity, negative = inhibition did it give?
Answer: Its activity, negative = inhibition is inconclusive: -66.2% [inhibitor].

Question: How did the Potency turn out when COc1ccc(-c2cc3c(=O)n(CC(=O)Nc4cccc(Cl)c4)nc(C)n3n2)cc1 was run?
Answer: Its Potency is “inactive”.

Question: N=c1n(CC(=O)O)c2ccccc2n1Cc1ccccc1Cl was tested. Which Potency did it give?
Answer: The Potency was inconclusive: 89.1 µM [inhibitor, single point].

Question: For O=C(OCC(=O)c1ccc(Cl)s1)c1ccccn1, which Potency is on record?
Answer: The Potency was “inactive”.

Question: For CCCC(=O)Nc1ccc(S(=O)(=O)Nc2cc(C)nc(C)n2)cc1, which Potency is on record?
Answer: The Potency was inconclusive: 39.8 µM [inhibitor, single point].

Question: How did the activity, negative = inhibition turn out when CN(C)/C=C1/OC(=O)C(C#N)=C1c1ccc(Cl)cc1 was run?
Answer: The activity, negative = inhibition was inactive: -4.93% [at 2.33 µM].

Question: CC(=O)c1ccc(NC(=O)C2(S(=O)(=O)c3ccccc3)CC2)cc1 was tested. Which Potency did it give?
Answer: The Potency was inconclusive: 50.1 µM [inhibitor, partial curve].

Question: With O=C(NCc1ccccc1)C(c1ccco1)N(C(=O)c1ccccn1)c1ccc(F)cc1 (stereo not given) as the compound, how does the Potency read?
Answer: The Potency was inconclusive: 44.7 µM [inhibitor, partial curve].

Question: For Cn1cc(C(=O)O)c(=O)c2cc(S(=O)(=O)N3CCOCC3)ccc21, which Potency is on record?
Answer: Its Potency is “inactive”.

Question: Which Potency does the source give for O=C(CN1CCc2ccccc2C1)N1CCN(S(=O)(=O)c2ccccc2)CC1 here?
Answer: Its Potency is inconclusive: 7.08 µM [inhibitor, partial curve, poor fit].

Question: How did the Potency turn out when COc1cc(/C=N/NC(=Nc2ccc(C)cc2)c2nc3ccccc3s2)ccc1O was run?
Answer: Its Potency is active: 14.1 µM.

Question: With O=C(c1cccc(NS(=O)(=O)c2ccccc2)c1)N1CCCCC1 as the compound, how does the Potency read?
Answer: The Potency was inconclusive: 100 µM [inhibitor, single point].

Question: How did the Potency turn out when CCc1c(C)sc(NC(=O)c2cccs2)c1C(N)=O was run?
Answer: The Potency was active: 11.2 µM.

Question: Which Potency does the source give for CCN(CC(=O)NCc1cccs1)C(=O)c1ccc(-c2cccc(C(F)(F)F)c2)o1 here?
Answer: Its Potency is inconclusive: 31.6 µM [inhibitor, partial curve, poor fit].

Question: With CCc1ccc(/C=N/NC(=S)NCCc2ccccc2)cc1 as the compound, how does the Potency read?
Answer: The Potency was “inactive”.

Question: With Cc1cccc(C)c1OCC(=O)N/N=C/c1cccn1C as the compound, how does the Potency read?
Answer: Its Potency is inconclusive: 31.6 µM [inhibitor, single point].

Question: With CCC(NC(C)C)C(O)c1ccc(O)c(O)c1 (stereo not given) as the compound, how does the Potency read?
Answer: The Potency was active: 12.6 µM and active: 26.7 µM.

Question: For Cc1nn(Cc2ccc(Cl)cc2)c(C)c1NC(=O)c1cc(-c2ccco2)on1, which Potency is on record?
Answer: The Potency was inconclusive: 14.1 µM [inhibitor, partial curve, poor fit].

Question: With CSc1nc(N)nc(SCC(=O)C23CC4CC(CC(C4)C2)C3)c1C#N as the compound, how does the Potency read?
Answer: The Potency was inconclusive: 20 µM [inhibitor, single point].

Question: Which Potency does the source give for O=C(NC1CCCCC1)c1ccc(-c2ccccc2[N+](=O)[O-])o1 here?
Answer: Its Potency is inconclusive: 89.1 µM [inhibitor, single point].

Question: How did the Potency turn out when CN(C)S(=O)(=O)c1ccc(C(=O)NNC(=O)C2COc3ccccc3O2)cc1 (stereo not given) was run?
Answer: Its Potency is “inactive”.

Question: How did the Potency turn out when CCc1ccc(NC(=O)CN2C(=O)C3CCCN3c3ccc(S(=O)(=O)N(CC)CC)cc32)cc1 (stereo not given) was run?
Answer: Its Potency is inconclusive: 25.1 µM [inhibitor, single point].

Question: With COc1ccc(/C=C(\NC(=O)c2ccc(Cl)cc2)C(=O)NCC2CCCO2)cc1OC (stereo not given) as the compound, how does the Potency read?
Answer: The Potency was “inactive”.

Question: CCn1c(=O)c(=O)[nH]c2cc(C(=O)NCC3CCCCC3)ccc21 was tested. Which Potency did it give?
Answer: Its Potency is inconclusive: 20 µM [inhibitor, single point].

Question: CCc1c(C(=O)NNC(=O)Nc2ccc3c(c2)OCO3)csc1C was tested. Which Potency did it give?
Answer: Its Potency is inconclusive: 63.1 µM [inhibitor, single point].

Question: For COc1ccc2c(Sc3ccc(C)cc3)c(C(=O)NCC(C)c3ccccc3)[nH]c2c1 (stereo not given), which Potency is on record?
Answer: Its Potency is inconclusive: 39.8 µM [inhibitor, single point].

Question: With CC(C)CN(C(=O)CC1OC(=O)c2ccccc21)c1c(N)n(Cc2ccccc2)c(=O)[nH]c1=O (stereo not given) as the compound, how does the Potency read?
Answer: Its Potency is active: 56.2 µM.

Question: With COc1ccccc1C1/C(=C(\O)c2ccc3c(c2)OCCO3)C(=O)C(=O)N1CCCN(C)C (stereo not given) as the compound, how does the Potency read?
Answer: Its Potency is “inactive”.

Question: For Nc1nc(CCOc2ccc(F)cc2)cs1, which Potency is on record?
Answer: Its Potency is inconclusive: 35.5 µM [inhibitor, partial curve, poor fit].

Question: For CCCCN(C)C(=O)Cn1c(=O)oc2cc(S(=O)(=O)N3CC(C)CC(C)C3)ccc21 (stereo not given), which Potency is on record?
Answer: Its Potency is “inactive”.

Question: With Cc1ccc2nc3sc(C(=O)N4CCOCC4)c(N)c3cc2c1 as the compound, how does the Potency read?
Answer: The Potency was active: 14.1 µM.

Question: CCn1c(SCC(=O)NCc2ccccc2)nc2c(c1=O)SC(C)C2 (stereo not given) was tested. Which Potency did it give?
Answer: Its Potency is “inactive”.

Question: COc1cccc2cc(C(=O)c3ccccc3)oc12 was tested. Which Potency did it give?
Answer: Its Potency is inconclusive: 35.5 µM [inhibitor, single point].

Question: For O=C(CCl)Nc1cc(SCC(O)CO)cc([N+](=O)[O-])c1 (stereo not given), which Potency is on record?
Answer: The Potency was active: 50.1 µM.

Question: With COc1ccc2oc(C(=O)NCC(c3ccco3)N(C)C)c(C)c2c1 (stereo not given) as the compound, how does the Potency read?
Answer: Its Potency is inconclusive: 50.1 µM [inhibitor, partial curve].

Question: With Cc1cc2c(cc1Cl)C(c1ccc3c(c1)OCO3)CC(=O)O2 (stereo not given) as the compound, how does the Potency read?
Answer: The Potency was “inactive”.

Question: How did the Potency turn out when Cc1ccc2cc(C)c3nnc(SCC(=O)Nc4nc5c(s4)CCCC5)n3c2c1C was run?
Answer: Its Potency is inconclusive: 44.7 µM [inhibitor, partial curve, poor fit].

Question: For CCN1CCCC1CNS(=O)(=O)c1ccc(C(=O)Nc2ccccc2)cc1 (stereo not given), which Potency is on record?
Answer: The Potency was inconclusive: 25.1 µM [inhibitor, partial curve, poor fit].

Question: Which Potency does the source give for COc1ccc2oc(=O)c(C(=O)NCCc3c(C)[nH]c4ccc(C)cc34)cc2c1 here?
Answer: Its Potency is inconclusive: 25.1 µM [inhibitor, partial curve, poor fit].

Question: How did the Potency turn out when CCCNC(=O)Cn1nc(-c2ccc(C)c(C)c2)c2cnc3ccc(OC)cc3c21 was run?
Answer: Its Potency is “inactive”.

Question: CN1CCc2cccc3c2[C@H]1Cc1ccc(O)c(O)c1-3 was tested. Which Potency did it give?
Answer: The Potency was active: 1.58 µM and active: 1.41 µM.

Question: Which Potency does the source give for CCC(=O)Nc1ccc(NC(=O)CCc2ccccc2)cn1 here?
Answer: Its Potency is “inactive”.

Question: How did the Potency turn out when COc1ccccc1-c1nc2c(c(SCc3cc(C)ccc3C)n1)Cc1c(CO)cnc(C)c1O2 was run?
Answer: The Potency was “inactive”.

Question: N#CCCN(Cc1cccnc1)C(=O)Nc1ccccc1 was tested. Which activity, negative = inhibition did it give?
Answer: The activity, negative = inhibition was inactive: -17.8% [at 12.7 µM].

Question: With CC(=O)OCCNC(=O)c1cccnc1 as the compound, how does the Potency read?
Answer: The Potency was “inactive”.

Question: How did the Potency turn out when COc1ccc(-c2ccc(SCC(=O)NC3CCCCC3)nn2)cc1OC was run?
Answer: Its Potency is “inactive”.

Question: With CCOC(=O)c1cc(NC(=O)CNCC(c2ccccc2)N(C)C)cc(C(=O)OCC)c1 (stereo not given) as the compound, how does the Potency read?
Answer: Its Potency is inconclusive: 79.4 µM [inhibitor, single point].

Question: With Cc1cccc(OCC(=O)Nc2ccc(S(=O)(=O)Nc3onc(C)c3C)cc2)c1C as the compound, how does the Potency read?
Answer: Its Potency is inconclusive: 35.5 µM [inhibitor, single point] and inconclusive: 44.7 µM [inhibitor, partial curve, poor fit].

Question: For CCOC(=O)c1nc(Nc2ccc(Nc3ccccc3)cc2)c2ccccc2n1, which Potency is on record?
Answer: Its Potency is inconclusive: 35.5 µM [inhibitor, single point].

Question: Which Potency does the source give for COc1ccc(CNCCC(c2ccc(C)cc2)c2ccco2)cc1 (stereo not given) here?
Answer: Its Potency is active: 5.01 µM.

Question: Which Potency does the source give for CCSc1nnc(NC(=O)C2CCCN(S(=O)(=O)c3cnc[nH]3)C2)s1 (stereo not given) here?
Answer: The Potency was inconclusive: 1 µM [inhibitor, full curve, poor fit].

Question: For COc1cc(-n2nc(C)c3c2OC(N)=C(C#N)C3c2ccccc2)c(Cl)c(Br)c1O (stereo not given), which Potency is on record?
Answer: Its Potency is inconclusive: 2 µM [inhibitor, partial curve, poor fit].

Question: Which Potency does the source give for COc1ccc(CNC(=O)c2cc3sccc3n2Cc2ccc(F)cc2)cc1 here?
Answer: The Potency was inconclusive: 35.5 µM [inhibitor, partial curve, poor fit].

Question: For COc1cccc(-c2nccc(NCc3ccc(OC)cc3OC)n2)c1, which activity, negative = inhibition is on record?
Answer: Its activity, negative = inhibition is inactive: 5.23% [at 0.501 µM].

Question: Which Potency does the source give for COc1ccc(C)cc1NC(=O)Nc1ccc(C(=O)N2CCCC2)cc1 here?
Answer: The Potency was inconclusive: 89.1 µM [inhibitor, single point].

Question: How did the Potency turn out when CCOC(=O)c1ccc(OC(=O)c2cn(-c3ccc(C)cc3)c(=O)c3ccccc23)cc1 was run?
Answer: The Potency was “inactive”.

Question: How did the Potency turn out when O=C(c1ccco1)n1nc(-c2ccco2)nc1SCc1ccccc1 was run?
Answer: The Potency was “inactive”.

Question: Which Potency does the source give for CN(Cc1ccccc1)c1c([N+](=O)[O-])c(=O)n(C)c2ccccc12 here?
Answer: Its Potency is inconclusive: 50.1 µM [inhibitor, partial curve].

Question: With CC(C)C1CC(CCNCc2ccc(N(C)C)cc2)(c2ccccc2)CCO1 (stereo not given) as the compound, how does the Potency read?
Answer: The Potency was active: 35.5 µM.

Question: With COc1cc(-c2nnc3sc(C4CCCCC4)nn23)cc(OC)c1OC as the compound, how does the Potency read?
Answer: Its Potency is inconclusive: 50.1 µM [inhibitor, partial curve, poor fit].

Question: Which Potency does the source give for CCOC(=O)c1cc(-c2ccc(N3CCOCC3)cc2)nn1-c1ccccc1 here?
Answer: Its Potency is “inactive”.
